The supplement of paper PMC3334620
Whole data set: some 33,000 sequences, median “E-score (-0.5 to 0.5)” near -0.053, cut for the highest 2% near 0.37. The list shows a part of the results.

Each sequence was assayed against Hap1 (UniProt P0CE41) (assay: PBM E-score (8-mer binding enrichment) (E-score (-0.5 to 0.5)); higher = stronger / more preferred TF binding; most listed sequences are background and not binding sites). Details: protein concentration: 200 nM; construct: GST-DNA-binding domain.
Outline: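 Each ungapped eight-base word and its reverse complement, pooled, received an E-score from the Universal PBM Analysis Suite. Underlying scans, normalised with masliner, recorded fluorescent anti-GST bound to GST-tagged yeast transcription factors. These were applied at about 100-200 nM to universal all-10-mer Agilent arrays double-stranded by primer extension.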

Chain of UniProt P0CE41 (P0CE41 whole entry, the tested form may be a part): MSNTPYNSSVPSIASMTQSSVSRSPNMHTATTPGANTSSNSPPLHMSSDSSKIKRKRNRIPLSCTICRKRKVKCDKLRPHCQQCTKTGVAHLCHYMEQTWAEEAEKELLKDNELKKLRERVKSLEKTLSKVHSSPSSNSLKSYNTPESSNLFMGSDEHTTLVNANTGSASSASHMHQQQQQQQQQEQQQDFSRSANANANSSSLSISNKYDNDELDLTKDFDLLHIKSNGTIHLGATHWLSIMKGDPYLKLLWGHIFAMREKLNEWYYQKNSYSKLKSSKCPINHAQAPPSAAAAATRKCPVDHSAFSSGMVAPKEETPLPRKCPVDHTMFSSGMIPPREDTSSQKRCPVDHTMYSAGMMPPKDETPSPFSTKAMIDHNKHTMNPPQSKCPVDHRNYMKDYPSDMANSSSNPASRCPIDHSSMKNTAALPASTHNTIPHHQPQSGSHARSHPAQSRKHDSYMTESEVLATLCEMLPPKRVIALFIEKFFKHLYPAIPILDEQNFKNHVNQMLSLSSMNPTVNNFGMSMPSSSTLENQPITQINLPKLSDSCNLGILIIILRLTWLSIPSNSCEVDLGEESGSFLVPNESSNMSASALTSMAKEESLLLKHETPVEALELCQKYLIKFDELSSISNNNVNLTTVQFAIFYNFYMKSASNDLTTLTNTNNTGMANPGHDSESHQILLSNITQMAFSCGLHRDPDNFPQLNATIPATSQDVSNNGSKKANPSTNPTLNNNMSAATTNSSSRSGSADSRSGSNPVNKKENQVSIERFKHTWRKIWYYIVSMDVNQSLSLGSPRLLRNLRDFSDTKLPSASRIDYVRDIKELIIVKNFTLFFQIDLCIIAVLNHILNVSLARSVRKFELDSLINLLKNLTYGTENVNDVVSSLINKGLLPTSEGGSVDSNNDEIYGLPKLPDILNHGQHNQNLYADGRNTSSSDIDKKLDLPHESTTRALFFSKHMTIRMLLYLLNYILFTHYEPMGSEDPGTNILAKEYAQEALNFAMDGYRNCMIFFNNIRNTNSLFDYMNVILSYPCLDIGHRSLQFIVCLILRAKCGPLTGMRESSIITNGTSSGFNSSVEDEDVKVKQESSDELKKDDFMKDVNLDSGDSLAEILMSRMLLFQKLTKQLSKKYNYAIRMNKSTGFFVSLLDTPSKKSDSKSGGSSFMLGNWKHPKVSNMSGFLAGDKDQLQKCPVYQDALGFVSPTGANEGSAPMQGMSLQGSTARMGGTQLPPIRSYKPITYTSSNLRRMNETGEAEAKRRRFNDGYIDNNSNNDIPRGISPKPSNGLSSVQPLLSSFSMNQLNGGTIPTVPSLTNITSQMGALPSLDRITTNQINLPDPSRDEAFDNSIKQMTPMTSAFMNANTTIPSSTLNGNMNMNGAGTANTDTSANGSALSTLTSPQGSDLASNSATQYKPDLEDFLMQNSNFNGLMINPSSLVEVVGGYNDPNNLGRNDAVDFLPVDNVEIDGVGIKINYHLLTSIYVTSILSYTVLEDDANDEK

Sequence | PBM E-score
ATAACGGG | 0.228
ATGAATCA | -0.159
GACAAGTC | -0.131
CCGTATCA | 0.101
CACTTTAC | -0.0959
ATTAAGGC | 0.0606
CGTCTAAC | 0.047
CTAATCAA | -0.0299
AGGACGCC | -0.0953
CAGCGAAA | -0.0174
GGTTACGA | -0.0956
ATGGGGTG | -0.177
GTGGCCTA | -0.0999
CCCTTTCA | -0.203
GGGTGGCA | -0.0189
GGTCCCAC | 0.0838
AGACGCGC | -0.0167
AAGAATGT | -0.0998
CGACCCGA | 0.23
CCAGGCGG | 0.0355
AGGTCGAA | -0.166
CATACACG | -0.102
CTGCAGGA | -0.126
CAGGTAAG | -0.144
CGAGCTCA | 0.169

Sequence | PBM E-score
AGGCGGTA | -0.131
GTAAGCGA | 0.00644
CCATAAAC | -0.0452
TCCGAGAA | 0.381
GAATGACA | -0.174
AATAGCGT | 0.0408
ATGATGCA | -0.258
ATTGCATA | -0.0926
AACACGAG | -0.156
CCGCAGAG | -0.0644
AGCTAACC | -0.0159
ACTGATAT | -0.081
ACACAAAT | 0.0159
AAGCATGG | -0.0785
CAACACTG | -0.242
CGCTACCC | -0.0271
AAACTGCC | -0.0803
CGTTCAGA | -0.209
AGTACAAA | -0.174
CGGCGATA | 0.472
CGATAACA | 0.348
ATATAGCA | -0.23
ACACGCGG | 0.156
GCTACACC | -0.113
CAAACCAA | -0.134

Sequence | PBM E-score
ACATGTAG | -0.081
GCCTGGAA | -0.233
GATCGGAC | 0.413
ATATGCAC | -0.137
AGGTGGTC | -0.176
GTTACCCA | -0.126
ATCGTTGG | -0.0823
AAGTATCA | -0.109
AAGATTAC | 0.0663
ACCTGAGG | -0.23
GCGATAGA | 0.223
CCGCGAAA | 0.276
AGCCGTGC | -0.00546
ACTTAATA | -0.0171
ACGCCAAA | -0.08
CAAAGCTA | -0.0227
GGATTGAC | 0.0252
GTCGTACA | -0.068
ATGCGGAA | 0.24
CCACACGG | 0.0602
AACACTAC | -0.188
CGGCACAG | 0.187
GAGATTTA | 0.0904
AGAATCGC | 0.141
CACTATGC | -0.0998

Sequence | PBM E-score
GACGATAA | 0.0929
CCGACTAG | 0.139
AAATTTAT | 0.0775
CTTAATGA | -0.14
AGCGGCAT | 0.205
GTCCAGGA | -0.33
GCATTTCC | 0.0931
TTCACCAA | -0.139
AGTATCAC | -0.0541
GATCTTCC | 0.132
AATCACGG | 0.205
AGAAGCCA | -0.0747
ATGAGGAG | -0.155
CCCGTCAC | 0.21
ATCGATGC | 0.0699
CAGGTACC | -0.145
AGTCTGCG | -0.376
GAAGCGTC | -0.117
GAACGGGC | -0.0275
CCTCCTCG | -0.147
CACATGGG | -0.229
AGCATCCC | -0.0528
AGACCGAT | 0.35
AGTGGGTA | 0.123
GTTGGGGA | -0.00945

Sequence | PBM E-score
CACGCAGA | -0.16
AAAAACGA | -0.157
TATGGGAA | -0.185
ACTACAAC | 0.00676
TCTCCGCA | 0.299
CCTCCCGC | 0.0238
ACAGGACC | -0.0163
GGTATCAA | 0.106
AGCACGAG | -0.0955
CGAGAACG | 0.178
AGGGATCC | 0.146
ATGTCGCG | 0.0235
GCGAGACC | -0.0495
ACTTGTTC | -0.117
GCTGACCA | -0.00634
GAAGAACC | 0.0508
AATGAATT | -0.0893
GCGTGAGA | 0.0273
ATTTTTGC | 0.0316
AACCTTTC | 0.0406
ATTGTCGG | 0.321
CGGAAAAG | 0.343
AACCAGCA | -0.143
CTAGAGCC | -0.103
CCACAACC | -0.072

Sequence | PBM E-score
AAGAGAGT | -0.114
CCTTAATA | -0.0697
GATGCATA | -0.0665
CCCCCCCA | -0.0859
ACTGGTGA | -0.245
CACTCTCC | 0.0718
CAAGATAG | -0.125
GGTACAGA | -0.147
CATCCTGC | -0.284
GCGATTAC | 0.0898
GACCGCGA | 0.19
CCACTCAC | -0.079
CATGCGGC | -0.15
ATAGCAAA | -0.248
GTATGAGA | -0.0236
GCAAGCCC | 0.0811
AAGCGCGG | 0.0839
ATGAGGAA | -0.0925
CCAAGCGA | -0.203
CCCGACAC | 0.177
CAAGTTGG | -0.0661
ATCCCATA | 0.0312
AGTCACAA | -0.27
ATACTGCG | -0.0218
CATGGTCC | -0.0533

Sequence | PBM E-score
AGTGCATA | -0.132
ATCTCCCC | 0.0474
ACAAATTA | -0.0249
ATGGGTCA | -0.27
TGACACAA | -0.188
AATGTGTC | -0.0789
CCATCCCA | -0.117
CGTTCTCA | -0.226
CCCTTAGA | -0.259
CAACCATC | 0.00672
GGTTCGAC | -0.0219
ACTACGCA | -0.0826
CAGAGAGC | -0.17
AACGGGCC | 0.127
AGAATTAC | 0.0991
GCTAGAAA | 0.00369
GAATGTCA | -0.149
CTCACACA | -0.0699
CCAGACCA | -0.187
CAACTGGA | -0.109
GATGCGCC | 0.04
AAGAATTG | 0.06
TGAGCCAA | -0.233
GACACACC | 0.0233
CTATGCAC | -0.253

Sequence | PBM E-score
ATGGGAGC | -0.0627
TAGCCATA | -0.25
ACGCTAGC | -0.212
AATAGAGA | -0.18
GCATAGAA | -0.00949
CATCCCCA | -0.184
CAAGCGAG | 0.0412
ACGAACGG | 0.236
GTGGAGTA | -0.107
ACGTCTCG | 0.0586
CATTAATA | 0.00311
AACCGTGG | 0.0649
ACCCAGTA | -0.253
CCGCGCGC | 0.24
CTGCTGCC | -0.142
GGTAGACA | 0.0417
ATCTCTTA | 0.015
AGAGTCCC | -0.0345
ATGTGCAC | -0.108
AAGCAGCT | -0.114
AAAGAGTC | -0.116
AAGTGTCT | -0.0964
ATTTACAG | -0.156
ACAGATTC | 0.0309
GCACCGCA | 0.00539

Sequence | PBM E-score
TGTCGACA | -0.321
AGGTGAAG | -0.184
GTACATAA | 0.0421
GCCGCCCC | 0.175
ACCGCCAC | -0.151
ATCGGCAA | 0.345
ACTGCAGC | -0.0459
AAGGAATT | -0.00572
CATCAGCC | -0.173
GATCAAGA | 0.0997
CACCGAGG | 0.29
AATGAAAC | -0.12
AACGCGGG | 0.267
AAACTCGG | 0.323
ACCTCCTG | -0.266
ACCCTGGG | -0.0738
AGACGCCA | -0.236
GCGATCCA | -0.0248
TACCTTCA | -0.199
AGATATTA | 0.0205
CCAGCCAG | -0.142
CATGATCA | -0.182
CCAGAGGC | -0.259
CTGCATTA | -0.0536
TAAGAGTA | -0.124

Sequence | PBM E-score
GGACTGGA | -0.0873
AGGCTATA | -0.157
ACCTGGGG | -0.232
CCGCTTAA | 0.0901
CGACGCCC | 0.277
GGTTTATA | 0.174
GATCGTCA | -0.0826
AAGAGCAG | -0.144
ACTCGGAT | 0.311
AAGCTATG | -0.221
TCGCTCCA | -0.0528
GCACAACA | -0.169
ACCACTGC | -0.234
CCCCGCGG | 0.219
AGGACGCA | -0.0629
GGTCGCTA | 0.0101
ACAGCGTG | -0.137
ACTTGGTG | -0.25
CCGGTGTC | 0.301
AGAGAACT | -0.168
CAAGTCGA | -0.217
AGCCCGAA | 0.3
CGCACGAA | 0.0082
GACTTCAA | -0.192
AGCTCCAG | -0.125

Sequence | PBM E-score
CCGCGATA | 0.297
CATTTTAA | -0.0637
GCACGAGA | -0.0065
GCCGGTTA | 0.218
CAATTAGA | -0.298
CACGTGAC | -0.211
CCATCGGC | 0.174
CTCTTCAC | -0.157
AATAATCA | -0.023
CATCATGG | -0.13
GCTTTTGA | 0.00454
ATCTACGA | -0.201
AAGTTATG | -0.163
ACTGGGAA | -0.103
GAAGTATC | 0.0616
ACGTGAGT | -0.227
CAACCAGG | -0.164
ACCTATAT | 0.114
AGAGCACA | -0.203
TACGACCA | -0.255
CCGGTAGA | 0.359
AATCGCTC | 0.0316
CGCAAGAC | -0.117
GCGGGATA | 0.2
AGGAGACG | -0.218

Sequence | PBM E-score
CCACACAG | -0.173
GCCATATA | 0.00515
ATACATAA | -0.108
CCAATTCA | -0.247
CTTAAGTA | -0.121
GGTAAATA | 0.0374
ACGGAGGG | 0.155
CCTGTACA | -0.103
AGTTACCA | 0.0113
AGCATGGC | -0.139
CATGTGCA | -0.253
GCTAGACC | 0.0346
GTTACGTA | -0.161
CATAGAAA | -0.0951
ATGCAGGA | -0.305
AGCGATCC | 0.0456
GCTCTGGA | -0.0319
AGCTCCCT | -0.25
AACGATGT | -0.124
CAGGCATG | -0.115
CAGCGACG | -0.158
CCAAAGAC | -0.0155
ATCGCCAG | -0.0506
ATAACCAG | -0.0985
AAGCGTAG | -0.057

Sequence | PBM E-score
AATGAGAT | -0.104
TCCTCCGA | 0.308
ATATCAGA | 0.126
GTAGATAA | 0.102
CGTGTTTC | 0.0655
TCGCCGAA | 0.341
TAAGTCCA | 0.138
ACACAAGT | -0.25
ATTCTCTA | -0.192
CCAGATGC | -0.0813
GACGCCCC | 0.132
ACCGATAG | 0.373
TACAAAGA | -0.0127
CCGGACCG | 0.431
AGCAATCC | 0.122
GCTTGAAC | 0.105
CATCAGAG | -0.119
CCGGCGGA | 0.421
CTCGGGAC | 0.263
ACTGGGCG | 0.031
ACGGTGCA | -0.19
TACTGTGA | -0.17
ACGTTGTA | -0.146
GGGACACC | 0.0924
CAAGTGCC | -0.145

Sequence | PBM E-score
TCAAGGCA | -0.298
GCAATGGC | 0.0739
AGCCAGAA | -0.187
CCTCGGAG | 0.394
AGACAGTC | -0.149
AACTGAAG | -0.186
CAATATTC | 0.0318
CCAGGAAC | -0.139
ATGCGGGG | 0.0501
CTCATTTA | -0.0627
AGGTCCAA | -0.133
CAGGATAA | -0.144
AACGGATT | 0.338
CTCAGCCA | -0.105
TAATAAAA | 0.0262
GCCAAAAC | -0.0706
CACACCCG | 0.16
CAGGGCCA | -0.233
CTGATTTC | -0.0451
